From the supplement of paper PMC10126150
Sequences with one replicate were seen in a single cluster, so their values are uncertain.

System: ATP
Test: switch fluorescence ratio, 500 uM ATP over buffer (Cy3 cluster intensity, sum of 5 cycles each) (fold (ratio)); higher = stronger signal-on switching upon ATP binding; sequences stand for … in TCGTCGGCAGCGTCAGATGTGTATAAGAGACAGTTTTTTTTTTTTTTTTTTTTTTTTT…TC
Conditions: aptamer strand: ATP DNA aptamer (quencher-CACCTGGGGGAGTATTGCGGAGGAAGG + anchor), 100 nM annealed; ATP concentration: 500 uM; one replicate
In short: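 Exposure to 500 uM ATP lasted 15 min at 22 °C before imaging, and a selection-buffer image was taken beforehand, for Cy3-labelled switching-strand clusters on a modified Illumina MiSeq flow-cell annealed to 100 nM quencher-labelled ATP aptamer. Five buffer/ATP cycles were run with NaOH stripping and re-annealing between them. The fluorescence ratio per cluster is summed target-cycle over summed buffer-cycle Cy3 intensity, averaged per switch-domain sequence. Clusters outside 100-1000 RFU were excluded.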

Row | Sequence | switch fluorescence ratio
1 | CTCAGGCCTC | 1.02
2 | GTCGTTTGTC | 0.984
3 | TCAAACATG | 1.01
4 | CTAGAAATGG | 1.01
5 | GCTACGTGTA | 1.04
6 | CAGAGTCATG | 1.02
7 | TTTCAGATTA | 1
8 | ACGCGTTAGG | 1.02
9 | CGGATGGTCC | 1.01
10 | CAGTGTTGAG | 0.933
11 | GCGAGCTGCG | 0.99
12 | GGCGTAGTTT | 1.02
13 | ACGAACCAGG | 3.11
14 | CGGCTATTTT | 0.971
15 | CATATCGGCT | 0.978
16 | GTTCTTGGTA | 1.01
17 | TGAGGGGTGT | 1.03
18 | TTGAGGTGA | 1.08
19 | GTCATTTCCA | 1
20 | ATGTGGTGAA | 1.04
21 | AGCATTGGC | 0.988
22 | ACAGGCCGCA | 1.03
23 | ACGCTAGATA | 1.05

Row | Sequence | switch fluorescence ratio
24 | CTAGATGTGT | 1.04
25 | ATAGACTCGG | 0.957
26 | ATCTTCCTTA | 1.11
27 | CTTTTCATTA | 0.959
28 | AAACACGACG | 1.1
29 | TCCGGAGACT | 2.28
30 | ACACACTTGT | 1.2
31 | TTGCGCATT | 1.04
32 | ACGGGTGTGG | 1.05
33 | ATAAGGAATT | 1.02
34 | AGCTGCCGGG | 0.99
35 | TAAATCCTTG | 0.993
36 | AAGGGACAAC | 1.04
37 | AACTGGGACC | 1.02
38 | TTCACTCGCA | 1.11
39 | TAGACAGGGT | 1.02
40 | GCTTCGCGTT | 1.11
41 | CTCGTTAGTA | 1.01
42 | ATATATTGGA | 0.992
43 | TTAGTGATAA | 1.03
44 | TATATCAACG | 0.983
45 | GAGAGGTAAA | 0.994
46 | AGCGGTTTTT | 1

Row | Sequence | switch fluorescence ratio
47 | GCATAGGAGC | 0.963
48 | TGTAGGTATA | 0.984
49 | GCCAATTCCT | 1.01
50 | CGAAGTGAGC | 1.21
51 | AAGGTCGTGG | 1.02
52 | AGAGGCAGAT | 0.974
53 | TATGGGCCGC | 1.13
54 | TCTTTATCGA | 1.01
55 | TCACAGAATC | 1.06
56 | TAAAAGTGTC | 0.982
57 | CTCTTTCCAA | 1.07
58 | GTAGTAATGA | 1.23
59 | CATAGTAAGT | 1.01
60 | GAGGGCAACG | 0.967
61 | ATACGAGTCC | 1.14
62 | GGGGGTAT | 0.992
63 | ACTCGTATAG | 0.966
64 | TGTTTTG | 1.02
65 | GTTCCCATAA | 0.976
66 | GGGTCCTTGA | 0.997
67 | ATCCCTACG | 1.08
68 | TCTTAATCGT | 1.02
69 | CCACCAGTTA | 1.22

Row | Sequence | switch fluorescence ratio
70 | CCTGTTGAG | 1
71 | CTCATGAGGT | 0.976
72 | CTCTTTTTGG | 0.996
73 | AGCAGCTCTG | 0.972
74 | CCTGGACTAA | 1.05
75 | AATGTATTAG | 0.974
76 | TAAGTGCTTC | 1.02
77 | AGGTCACGTT | 0.987
78 | GGGATGCCTC | 1.03
79 | GGTGTATAG | 1.05
80 | CGGTGGAGCA | 1.01
81 | ACCCCTGCTT | 1.01
82 | TATACAACAG | 1.15
83 | GCACATTCCA | 1.01
84 | GACAGACCCT | 1.11
85 | AGCCTATGGG | 1.01
86 | AGTTGATCAA | 1.01
87 | TGGCCAGGGG | 1.18
88 | GCAAGCATGT | 0.991
89 | TTTACAAGAG | 0.976
90 | TCTTTATCTT | 1.02
91 | GCGTTCATGC | 1.01
92 | CTGGTGATCC | 0.976

Row | Sequence | switch fluorescence ratio
93 | ATGTCTTAGT | 0.992
94 | GATGGTCTAT | 0.997
95 | TACGTGTACG | 1
96 | GCGGCAAT | 1.12
97 | GAATTAGTCC | 0.986
98 | CACAATTCGT | 1
99 | GCCTGCTCGG | 1
100 | GTTTGTAAGG | 1.01
101 | TAGGTTAAGT | 1.01
102 | TCCACAAACA | 1.16
103 | GAAGGAACAG | 1.03
104 | ATTCATCTCG | 0.999
105 | TATACGTCGC | 0.975
106 | TCCGAATCTT | 0.984
107 | CCCCGGCAGC | 4.44
108 | ACGGCCTAAG | 1.02
109 | GTCGGTGTCG | 1.03
110 | GTGAAGATAT | 1.03
111 | ATTTGCGAAG | 0.996
112 | CTTAACGGCT | 0.995
113 | GACTAATTGA | 0.96
114 | TTCCGGTGTG | 0.972
115 | GCAGACAGGC | 0.991

Row | Sequence | switch fluorescence ratio
116 | TATTGTTGTC | 1.02
117 | AGCGTTACCG | 1
118 | ATACATAATG | 1.06
119 | TATGGGTGGA | 0.986
120 | AGCCGGGTTG | 1.04
121 | TCAGGCGTAG | 0.958
122 | GCTCAGGCC | 1.02
123 | GCTGAGTCGT | 0.965
124 | TTCAATTAAA | 0.985
125 | TTTGTCGTGA | 0.99
126 | GGTACGCTGG | 0.988
127 | GAGGATGTTT | 0.993
128 | TAGGACTTG | 0.97
129 | GGGCGAAGGC | 0.98
130 | CAAAATTCAG | 1.02
131 | CCTCACACTC | 4.44
132 | GGTTACAGGA | 0.936
133 | GTATCTCCGT | 1.02
134 | TGGGTTATA | 0.946
135 | GCTTTTCCAT | 0.958
136 | AGTGCTTAGT | 1.01
137 | TCTGAGTCGG | 1.31
138 | CGAACGAGG | 1.01

Row | Sequence | switch fluorescence ratio
139 | TTGCCGAGTC | 0.965
140 | AATGCAGGCG | 1.08
141 | AATCGCCCGC | 1.05
142 | CCGTGGAAAT | 0.99
143 | TGGACACTTC | 0.983
144 | TGACTAGAGG | 0.979
145 | TCTCAATGAT | 1.01
146 | TTTACCGGGG | 1.03
147 | TTGGCTGCAC | 1.02
148 | ACCGGGTTGA | 1.02
149 | TCTAAACCGC | 1.03
150 | CGTGGTCGC | 0.988
151 | TAGCCAGCGG | 0.957
152 | TTGGGTATCA | 0.962
153 | GGCCCAAAGA | 1.1
154 | GTCTTCTTG | 1.04
155 | CAAGAAGTGT | 0.956
156 | CATATGCG | 1.07
157 | TCGCATATTT | 3.02
158 | CTATGCGTAT | 0.996
